Test results reported in PMC12231567.
These are yes or no findings as the source states them, for the method shown. Some entries that bind do so weakly or less than the wild type. Tags and fused reporters may be left off the sequences shown.

Experiments:
Assay in all cases: two-hybrid; cotransformation of pGBKT7 (BD, bait) and pGADT7 (AD, prey) into S. cerevisiae Y2H Gold; drop dilutions on -LT and -LTH (triple dropout) medium, 30 °C
[1] = target: T1, αKNL2^ΔD-box2 fused to the GAL4 DNA-binding domain (Arabidopsis thaliana) (UniProt F4KCE9)
T1 sequence: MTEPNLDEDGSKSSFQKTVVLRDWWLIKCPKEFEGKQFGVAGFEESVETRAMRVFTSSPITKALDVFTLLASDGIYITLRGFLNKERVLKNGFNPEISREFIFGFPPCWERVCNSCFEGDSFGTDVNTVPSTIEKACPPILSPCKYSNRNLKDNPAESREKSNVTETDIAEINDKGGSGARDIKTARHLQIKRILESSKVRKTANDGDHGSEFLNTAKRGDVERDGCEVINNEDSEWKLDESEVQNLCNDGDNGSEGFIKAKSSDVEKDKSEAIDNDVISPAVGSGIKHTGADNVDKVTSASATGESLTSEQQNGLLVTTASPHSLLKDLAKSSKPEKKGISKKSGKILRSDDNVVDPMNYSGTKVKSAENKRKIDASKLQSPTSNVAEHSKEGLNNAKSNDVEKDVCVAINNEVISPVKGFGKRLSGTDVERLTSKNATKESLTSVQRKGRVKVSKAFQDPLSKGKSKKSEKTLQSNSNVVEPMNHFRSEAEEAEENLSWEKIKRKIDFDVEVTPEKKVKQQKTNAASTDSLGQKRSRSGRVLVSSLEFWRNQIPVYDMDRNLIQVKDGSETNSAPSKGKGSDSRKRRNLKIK

[2] = target: T2, αKNL2-C (C-terminal fragment of αKNL2, 364 to 599 aa) fused to the GAL4 DNA-binding domain (Arabidopsis thaliana) (UniProt F4KCE9)
T2 sequence: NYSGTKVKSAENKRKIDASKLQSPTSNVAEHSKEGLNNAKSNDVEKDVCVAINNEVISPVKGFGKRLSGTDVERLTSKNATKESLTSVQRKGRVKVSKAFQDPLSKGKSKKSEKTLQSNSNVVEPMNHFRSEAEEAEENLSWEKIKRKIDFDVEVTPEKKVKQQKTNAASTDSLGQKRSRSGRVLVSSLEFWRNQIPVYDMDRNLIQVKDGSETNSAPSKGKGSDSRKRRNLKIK

[3] = target: T3, αKNL2 (KINETOCHORE NULL2), full length, fused to the GAL4 DNA-binding domain (Arabidopsis thaliana) (UniProt F4KCE9)
T3 sequence: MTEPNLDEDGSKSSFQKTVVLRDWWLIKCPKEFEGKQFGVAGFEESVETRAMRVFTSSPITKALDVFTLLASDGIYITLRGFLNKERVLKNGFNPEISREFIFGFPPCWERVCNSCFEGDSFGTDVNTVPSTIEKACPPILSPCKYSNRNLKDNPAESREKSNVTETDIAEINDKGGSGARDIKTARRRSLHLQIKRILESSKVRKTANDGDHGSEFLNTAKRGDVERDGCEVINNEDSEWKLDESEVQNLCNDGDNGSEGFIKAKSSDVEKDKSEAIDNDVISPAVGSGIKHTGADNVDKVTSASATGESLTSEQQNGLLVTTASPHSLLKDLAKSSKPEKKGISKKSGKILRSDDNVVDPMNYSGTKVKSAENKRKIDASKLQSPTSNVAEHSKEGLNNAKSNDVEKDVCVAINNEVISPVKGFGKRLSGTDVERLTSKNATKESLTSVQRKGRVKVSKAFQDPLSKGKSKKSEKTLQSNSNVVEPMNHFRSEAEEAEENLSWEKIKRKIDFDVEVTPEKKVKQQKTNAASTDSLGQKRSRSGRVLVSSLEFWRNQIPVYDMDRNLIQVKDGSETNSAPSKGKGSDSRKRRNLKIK

[4] = target: T4, αKNL2-N (N-terminal fragment of αKNL2, 1 to 363 aa) fused to the GAL4 DNA-binding domain (Arabidopsis thaliana) (UniProt F4KCE9)
T4 sequence: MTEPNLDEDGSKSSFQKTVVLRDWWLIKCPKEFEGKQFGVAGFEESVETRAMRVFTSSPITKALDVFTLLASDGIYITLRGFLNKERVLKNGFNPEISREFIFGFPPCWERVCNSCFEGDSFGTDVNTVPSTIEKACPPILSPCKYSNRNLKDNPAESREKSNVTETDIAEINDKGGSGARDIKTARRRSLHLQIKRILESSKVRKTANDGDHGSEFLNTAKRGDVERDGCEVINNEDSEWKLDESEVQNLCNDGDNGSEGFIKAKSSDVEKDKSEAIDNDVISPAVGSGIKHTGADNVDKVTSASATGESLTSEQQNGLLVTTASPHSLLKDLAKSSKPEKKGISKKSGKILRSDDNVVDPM

[5] = target: T5, αKNL2^ΔD-box1 fused to the GAL4 DNA-binding domain (Arabidopsis thaliana) (UniProt F4KCE9)
T5 sequence: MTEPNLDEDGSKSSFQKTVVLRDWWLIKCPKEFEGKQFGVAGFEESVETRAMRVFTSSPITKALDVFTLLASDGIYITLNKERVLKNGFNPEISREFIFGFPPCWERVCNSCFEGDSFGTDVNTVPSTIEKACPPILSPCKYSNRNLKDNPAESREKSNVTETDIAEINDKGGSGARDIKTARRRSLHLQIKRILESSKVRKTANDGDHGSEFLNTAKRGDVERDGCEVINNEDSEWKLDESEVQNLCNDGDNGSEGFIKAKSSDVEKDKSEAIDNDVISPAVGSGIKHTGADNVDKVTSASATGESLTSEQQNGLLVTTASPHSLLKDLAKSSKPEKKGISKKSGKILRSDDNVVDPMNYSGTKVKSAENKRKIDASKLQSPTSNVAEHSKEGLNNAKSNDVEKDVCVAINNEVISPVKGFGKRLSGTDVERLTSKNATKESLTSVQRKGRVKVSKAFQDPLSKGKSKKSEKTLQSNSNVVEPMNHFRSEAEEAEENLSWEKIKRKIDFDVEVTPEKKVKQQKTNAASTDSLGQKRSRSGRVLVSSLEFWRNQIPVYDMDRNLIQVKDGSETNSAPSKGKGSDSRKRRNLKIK

B1: CDC20.1 (Cell Division Cycle 20.1) fused to the GAL4 activation domain (protein, UniProt Q9SZA4 1-457)
chain: MDAGMNNTSSHYKTQARCPLQEHFLPRKPSKENLDRFIPNRSAMNFDYAHFALTEGRKGKDQTAAVSSPSKEAYRKQLAETMNLNHTRILAFRNKPQAPVELLPSNHSASLHQQPKSVKPRRYIPQTSERTLDAPDIVDDFYLNLLDWGSANVLAIALDHTVYLWDASTGSTSELVTIDEEKGPVTSINWAPDGRHVAVGLNNSEVQLWDSASNRQLRTLKGGHQSRVGSLAWNNHILTTGGMDGLIINNDVRIRSPIVETYRGHTQEVCGLKWSGSGQQLASGGNDNVVHIWDRSVASSNSTTQWLHRLEEHTSAVKALAWCPFQANLLATGGGGGDRTIKFWNTHTGACLNSVDTGSQVCSLLWSKNERELLSSHGFTQNQLTLWKYPSMVKMAELTGHTSRVLYMAQSPDGCTVASAAGDETLRFWNVFGVPETAKKAAPKAVSEPFSHVNRIR
B1 was tested, and the binding [1] was “binds”, the binding [2] was “binds” and the binding [3] was “binds”. For the same binder, the binding [4] was “binds” and the binding [5] was “no binding”.
